The other results are listed elsewhere or left out.
Test system: T1, C. trachomatis L2/434/Bu expressing GFP (CTL2-GFP)
T1 construct: L2/434/Bu GFP intracellular growth in HeLa cells
Parameters: species or system HeLa; C. trachomatis total inclusion area by high-content imaging, normalised to DMSO
Conditions: total inclusion area; 28.5 h, 10 µM; inhibitor
Outline: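 Bulk GFP and resorufin signals were read first. Wells were then fixed, stained with Hoechst and imaged to detect GFP inclusions and host nuclei. MICs followed the previously described calculation.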

| SMILES | % of control remaining |
| --- | --- |
| CC(CC(=O)C1C(C)C=CCC1(C)C)NNC(=O)c1ccccc1O (stereo not shown) [CBK262980] | 92.531 |
| Clc1cc(CSc2nnnn2-c2ccccc2)cc2c1OCCCO2 [CBK297159] | 78.9602 |
| CNC(=O)NC(=O)C1CCN(CCOc2ccccc2)CC1 [CBK034959] | 67.522 |
| CC(C)NC(=O)c1cccc2c1CCCN2Cc1nc2ccccc2o1 [CBK295135] | 115.62 |
| O=C(CCN1CCOCC1)N/N=C\c1cccs1 [CBK005035] | 101.739 |
| COc1cc(NC(=O)COc2cc(C)cc(C)c2)c(C(=O)O)cc1OC [CBK268650] | 119.501 |
| Cc1nc2c(c(=O)[nH]1)CN(Cc1c(C)oc3ccccc13)CC2 [CBK283984] | 94.5568 |
| CCN(CC(=O)NC(C)C)Cc1csc(-c2ccc(F)cc2)n1 [CBK305849] | 107.425 |
| Cc1csc(NC(=O)CN2CC=C(c3ccc(C)o3)CC2)n1 [CBK283606] | 115.157 |
| Cc1cc(C(=O)Nc2ccccc2C(=O)O)ccc1NC(=O)CC(C)C [CBK263616] | 90.0496 |
| c1cncc(-c2ccc(N3CCN(CCN4CCCC4)CC3)nc2)c1 [CBK037661] | 127.616 |
| Cc1cccc(OCC(=O)Nc2sc3c(c2C(N)=O)CCC3)c1C [CBK269729] | 105.12 |
| C=CCn1c2ccccc2c2nnc(SC(CC)C(=O)N3c4ccccc4Sc4ccccc43)nc21 (stereo not shown) [CBK263040] | 101.895 |
| O=C(O)CC1S/C(=N/N=C/c2ccc(-c3ccc(Cl)cc3[N+](=O)[O-])o2)NC1=O (stereo not shown) [CBK264507] | 89.7803 |
| CSc1nc(O)c(C(c2ccc(Cl)cc2)c2c(O)nc(SC)nc2O)c(O)n1 [CBK265306] | 111.092 |
| CCNC(=O)N1CC2(CCN(Cc3ccc4nsnc4c3)CC2)c2ccccc21 [CBK136968] | 89.0359 |
| CC(C)CC1C(C#N)=C(N)Oc2n[nH]c(-c3cccs3)c21 (stereo not shown) [CBK267449] | 95.0446 |
| Cc1cccc(NC(=S)N2CCN(Cc3ccc4c(c3)OCO4)CC2)c1C [CBK264919] | 107.145 |
| Clc1ccc(-c2cncc(NCCc3ccncc3)n2)cc1 [CBK065787] | 103.254 |
| Oc1ccc(Cn2cnc3ccccc32)c2cccnc12 [CBK291202] | 46.2621 |
| N#Cc1ccccc1Cn1cc(C(=O)C(N)=O)c2ccccc21 [CBK269862] | 68.971 |
| Cc1cc(C(=O)NCCn2ccnc2C)c2ccccc2n1 [CBK281895] | 90.0041 |
| O=C1CCN(Cc2ccccc2)CCN1C(=O)c1cccs1 [CBK284828] | 95.2998 |
| CC(C)Nc1nccnc1Sc1cccc2ccccc12 [CBK089493] | 92.5918 |
| CC(=O)N1CCN(c2ccc(NC(=O)C3C(C(=O)O)C3(C)C)cc2)CC1 (stereo not shown) [CBK300545] | 71.1779 |
| O=C1CCN(C(=O)c2ccccn2)CCN1Cc1cccc(F)c1 [CBK284467] | 99.798 |

| SMILES | % of control remaining |
| --- | --- |
| O=S(=O)(Nc1nccnc1-c1cccs1)c1ccccc1Cl [CBK050775] | 106.148 |
| O=C(c1ccccc1F)N1CCC(n2cnc3cccnc32)CC1 [CBK283937] | 78.6829 |
| CSc1nc2ncnc(N3CCC(O)CC3)c2s1 [CBK022082] | 101.045 |
| COc1ccc2c(c1)CC(=O)NC21CCN(C(=O)CCCC(=O)O)CC1 [CBK047208] | 104.843 |
| COc1ccc(CN2CCN(C(=O)c3cccc(N(C)C)c3)CC2)cc1 [CBK305713] | 52.8733 |
| CC1CCN(c2nc(-c3ccccc3O)nc3ccccc23)CC1 [CBK066899] | 92.741 |
| O=C(Nc1ccc(-c2cccc(F)c2)cc1)c1ccccc1Cn1cncn1 [CBK285565] | 95.9799 |
| Cc1ccc(CSCCNC(=O)/C=C/c2ccccc2)cc1 [CBK263985] | 104.147 |
| CC(C)N(Cc1nc(-c2ccccc2)no1)C(=O)Nc1cccc(Cl)c1 [CBK269871] | 87.7361 |
| CCc1ncc2c(n1)CN(Cc1cc(=O)n3cccc(C)c3n1)CC2 [CBK305914] | 53.6472 |
| CCOC(=O)c1cnc2c(C)cc(Cl)cc2c1NCCN(C)C [CBK264800] | 114.882 |
| Nc1nc(CSc2nnc(-c3ccncc3)o2)nc(Nc2ccc(F)cc2)n1 [CBK266221] | 109.104 |
| Cc1nc(NS(=O)(=O)c2c(C)noc2C)sc1C(=O)O [CBK045562] | 92.7764 |
| O=C(c1ccccc1F)N1CCCC1c1n[nH]cc1-c1ccncc1 (stereo not shown) [CBK283428] | 124.725 |
| COc1ccc(N2C(=O)C3C(CC(C)C)NC4(C(=O)N(CC(=O)Nc5ccc(C)cc5)c5ccccc54)C3C2=O)cc1 (stereo not shown) [CBK266034] | 111.015 |
| COCCCn1c(=O)[nH]c2ncc(-c3cccc(/C=C/C(=O)O)c3)nc21 [CBK065107] | 129.577 |
| CCN(CC)CCNC(=O)c1cc(O)nc2ccccc12 [CBK269261] | 66.1934 |
| Cc1noc(C)c1Cn1cc(NS(=O)(=O)c2cccs2)cn1 [CBK044394] | 103.898 |
| COCCc1noc(CC2CCN(c3nc(C)cc(C#N)n3)CC2)n1 [CBK304179] | 64.891 |
| Cc1ccc(S(=O)(=O)N2CCN(c3ccc([N+](=O)[O-])c(N4CCN(C)CC4)c3)CC2)cc1 [CBK264795] | 118.366 |
| CCOC1CCCN(C(=O)c2cccnc2Nc2cccc(F)c2)C1 (stereo not shown) [CBK305307] | 81.6633 |
| CCN(CC(=O)N1CCN(C(=O)c2ccc(C)cc2)CC1)C(=O)OC [CBK027051] | 54.8771 |
| NC(=O)CN1CC2(CCN(CCCn3c(=O)[nH]c4ccccc43)CC2)c2ccccc21 [CBK126787] | 84.0606 |
| Cc1ccc(C(=O)NCCC(=O)Nc2ccccc2C)cc1 [CBK268569] | 101.453 |
| CCCCn1nccc1NC(=O)NC(C)c1ccncc1 (stereo not shown) [CBK304840] | 14.7347 |
| CC(=O)Nc1ccc(S(=O)(=O)NCCSc2ccc(C)cc2)cc1 [CBK263563] | 74.1529 |

From publication PMC12040169 (PLOS Biology, 2025)
